This note sets out measurements from paper PMC11624280.

Sequences of proteins named here, by UniProt entry; tags and fusion partners are left off.
UniProt Q9NRC8: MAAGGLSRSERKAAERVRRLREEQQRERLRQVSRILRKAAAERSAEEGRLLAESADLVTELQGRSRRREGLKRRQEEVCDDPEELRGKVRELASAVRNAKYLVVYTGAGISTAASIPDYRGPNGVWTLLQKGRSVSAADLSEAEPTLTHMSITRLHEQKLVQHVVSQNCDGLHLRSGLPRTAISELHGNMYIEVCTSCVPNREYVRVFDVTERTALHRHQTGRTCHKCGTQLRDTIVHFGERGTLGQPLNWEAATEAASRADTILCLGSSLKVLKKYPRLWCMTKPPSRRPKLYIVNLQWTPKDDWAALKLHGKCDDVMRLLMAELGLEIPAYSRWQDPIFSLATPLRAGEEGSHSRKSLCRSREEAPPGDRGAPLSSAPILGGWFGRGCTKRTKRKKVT
UniProt Q5SQI0: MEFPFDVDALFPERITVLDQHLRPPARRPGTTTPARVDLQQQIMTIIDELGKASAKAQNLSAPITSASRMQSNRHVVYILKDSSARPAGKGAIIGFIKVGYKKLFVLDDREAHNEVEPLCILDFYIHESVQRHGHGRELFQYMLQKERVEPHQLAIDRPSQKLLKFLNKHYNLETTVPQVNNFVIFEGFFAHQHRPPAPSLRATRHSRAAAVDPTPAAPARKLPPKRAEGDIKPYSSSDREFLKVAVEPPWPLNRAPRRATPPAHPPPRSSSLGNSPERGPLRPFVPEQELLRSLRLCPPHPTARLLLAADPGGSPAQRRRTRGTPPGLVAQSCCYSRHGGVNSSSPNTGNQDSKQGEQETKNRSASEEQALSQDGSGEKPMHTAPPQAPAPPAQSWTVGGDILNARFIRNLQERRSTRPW
UniProt Q8N6T7: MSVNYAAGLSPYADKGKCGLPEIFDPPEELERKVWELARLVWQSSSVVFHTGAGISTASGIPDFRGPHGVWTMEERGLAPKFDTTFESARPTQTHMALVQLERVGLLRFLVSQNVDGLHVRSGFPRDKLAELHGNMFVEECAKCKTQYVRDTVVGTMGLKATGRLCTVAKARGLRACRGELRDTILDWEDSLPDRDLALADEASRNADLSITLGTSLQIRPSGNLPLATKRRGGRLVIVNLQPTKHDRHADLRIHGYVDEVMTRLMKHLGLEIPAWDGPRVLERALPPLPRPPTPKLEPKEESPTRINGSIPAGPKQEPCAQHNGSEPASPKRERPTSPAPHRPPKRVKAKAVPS
UniProt Q09472: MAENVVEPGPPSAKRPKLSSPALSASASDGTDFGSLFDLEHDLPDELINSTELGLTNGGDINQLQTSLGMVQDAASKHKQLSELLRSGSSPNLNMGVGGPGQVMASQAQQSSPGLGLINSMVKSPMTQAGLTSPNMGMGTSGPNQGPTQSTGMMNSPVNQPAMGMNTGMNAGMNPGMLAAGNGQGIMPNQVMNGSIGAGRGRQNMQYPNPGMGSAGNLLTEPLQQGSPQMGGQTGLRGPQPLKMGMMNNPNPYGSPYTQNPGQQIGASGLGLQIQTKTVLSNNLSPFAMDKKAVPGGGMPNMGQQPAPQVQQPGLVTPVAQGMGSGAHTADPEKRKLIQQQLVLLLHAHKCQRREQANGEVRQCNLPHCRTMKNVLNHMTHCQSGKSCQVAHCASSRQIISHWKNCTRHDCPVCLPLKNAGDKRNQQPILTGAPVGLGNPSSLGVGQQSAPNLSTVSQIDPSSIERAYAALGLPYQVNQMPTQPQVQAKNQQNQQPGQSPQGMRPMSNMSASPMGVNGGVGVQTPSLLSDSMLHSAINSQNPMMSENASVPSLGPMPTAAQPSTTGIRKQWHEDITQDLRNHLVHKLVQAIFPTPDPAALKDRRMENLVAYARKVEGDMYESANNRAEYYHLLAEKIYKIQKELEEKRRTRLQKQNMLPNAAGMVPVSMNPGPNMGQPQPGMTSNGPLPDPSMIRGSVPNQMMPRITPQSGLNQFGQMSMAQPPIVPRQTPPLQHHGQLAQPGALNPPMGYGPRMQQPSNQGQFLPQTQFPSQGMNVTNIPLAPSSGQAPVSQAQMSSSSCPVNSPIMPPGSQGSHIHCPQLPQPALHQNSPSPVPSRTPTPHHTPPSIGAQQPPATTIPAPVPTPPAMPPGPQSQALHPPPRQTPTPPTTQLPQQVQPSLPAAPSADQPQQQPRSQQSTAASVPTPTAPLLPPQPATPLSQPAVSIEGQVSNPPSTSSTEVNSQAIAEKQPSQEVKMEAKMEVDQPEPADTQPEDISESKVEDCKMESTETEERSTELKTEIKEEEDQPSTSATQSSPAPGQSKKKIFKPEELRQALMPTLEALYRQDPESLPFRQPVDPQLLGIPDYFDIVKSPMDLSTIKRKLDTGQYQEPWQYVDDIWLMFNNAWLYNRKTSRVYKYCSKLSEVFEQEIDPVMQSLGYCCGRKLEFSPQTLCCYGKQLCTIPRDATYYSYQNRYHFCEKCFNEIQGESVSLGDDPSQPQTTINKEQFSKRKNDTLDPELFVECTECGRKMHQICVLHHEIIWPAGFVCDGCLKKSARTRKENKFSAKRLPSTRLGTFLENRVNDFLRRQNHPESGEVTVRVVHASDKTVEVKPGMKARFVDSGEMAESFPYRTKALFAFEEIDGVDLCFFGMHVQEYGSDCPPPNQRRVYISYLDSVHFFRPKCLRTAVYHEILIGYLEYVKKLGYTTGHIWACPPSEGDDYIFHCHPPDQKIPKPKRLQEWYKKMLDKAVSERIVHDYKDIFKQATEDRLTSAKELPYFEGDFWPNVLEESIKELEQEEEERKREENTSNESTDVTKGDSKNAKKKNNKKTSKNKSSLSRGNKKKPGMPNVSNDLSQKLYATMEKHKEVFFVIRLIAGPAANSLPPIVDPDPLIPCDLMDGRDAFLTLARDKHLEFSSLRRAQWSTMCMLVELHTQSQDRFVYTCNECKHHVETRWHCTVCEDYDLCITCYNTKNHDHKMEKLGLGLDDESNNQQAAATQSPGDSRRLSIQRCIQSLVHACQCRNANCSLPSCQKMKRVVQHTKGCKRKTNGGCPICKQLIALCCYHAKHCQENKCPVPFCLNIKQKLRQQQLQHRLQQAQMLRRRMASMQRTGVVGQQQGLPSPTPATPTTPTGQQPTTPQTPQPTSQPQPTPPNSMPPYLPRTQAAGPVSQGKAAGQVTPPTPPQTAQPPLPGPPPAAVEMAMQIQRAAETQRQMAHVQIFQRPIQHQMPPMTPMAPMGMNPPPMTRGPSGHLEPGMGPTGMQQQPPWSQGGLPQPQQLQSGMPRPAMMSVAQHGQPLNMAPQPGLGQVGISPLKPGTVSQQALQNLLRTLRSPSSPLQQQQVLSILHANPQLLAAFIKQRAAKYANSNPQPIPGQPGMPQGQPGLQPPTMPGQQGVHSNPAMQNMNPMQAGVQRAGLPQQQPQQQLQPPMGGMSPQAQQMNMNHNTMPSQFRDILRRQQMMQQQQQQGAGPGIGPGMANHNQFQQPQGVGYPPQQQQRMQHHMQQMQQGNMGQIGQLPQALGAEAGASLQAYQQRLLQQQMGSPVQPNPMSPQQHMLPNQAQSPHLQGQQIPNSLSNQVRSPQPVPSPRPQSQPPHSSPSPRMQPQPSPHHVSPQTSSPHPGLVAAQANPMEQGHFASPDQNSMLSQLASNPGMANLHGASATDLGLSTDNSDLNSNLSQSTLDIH

Results are given in words; binding and its absence hold for the method and conditions named. In cells and extracts the contact can be indirect. Some binding calls cover weakened binding; strength is not graded here. Sequences can lack the tags named with a protein.

T1: YTHDF1 (endogenous, HEK-293T cells) (human (endogenous in HEK-293T)) (UniProt Q9BYJ9)
T1 sequence: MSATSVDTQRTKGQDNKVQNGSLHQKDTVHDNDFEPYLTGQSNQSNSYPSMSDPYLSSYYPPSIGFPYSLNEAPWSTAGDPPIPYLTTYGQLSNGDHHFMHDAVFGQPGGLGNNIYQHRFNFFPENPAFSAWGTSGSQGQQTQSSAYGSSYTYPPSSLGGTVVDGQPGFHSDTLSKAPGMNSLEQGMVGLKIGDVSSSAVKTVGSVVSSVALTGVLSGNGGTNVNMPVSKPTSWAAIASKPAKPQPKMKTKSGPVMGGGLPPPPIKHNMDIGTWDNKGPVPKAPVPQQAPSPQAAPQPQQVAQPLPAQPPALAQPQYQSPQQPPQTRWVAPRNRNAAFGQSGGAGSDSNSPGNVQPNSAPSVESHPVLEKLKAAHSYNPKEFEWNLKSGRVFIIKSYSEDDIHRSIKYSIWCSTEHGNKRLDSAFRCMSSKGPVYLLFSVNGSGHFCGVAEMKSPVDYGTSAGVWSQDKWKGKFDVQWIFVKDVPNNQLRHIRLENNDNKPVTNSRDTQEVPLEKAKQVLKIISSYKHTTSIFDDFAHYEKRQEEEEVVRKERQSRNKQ

B1: Myc-Sirt4 (enzyme, UniProt Q9Y6E7 29-314)
chain: IGLFVPASPPLDPEKVKELQRFITLSKRLLVMTGAGISTESGIPDYRSEKVGLYARTDRRPIQHGDFVRSAPIRQRYWARNFVGWPQFSSHQPNPAHWALSTWEKLGKLYWLVTQNVDALHTKAGSRRLTELHGCMDRVLCLDCGEQTPRGVLQERFQVLNPTWSAEAHGLAPDGDVFLSEEQVRSFQVPTCVQCGGHLKPDVVFFGDTVNPDKVDFVHKRVKEADSLLVVGSSLQVYSGYRFILTAWEKKLPIAILNIGPTRSDDLACLKLNSRCGELLPLIDPC
B2: Myc-Sirt2 (enzyme, UniProt Q8IXJ6 1-389)
chain: MAEPDPSHPLETQAGKVQEAQDSDSDSEGGAAGGEADMDFLRNLFSQTLSLGSQKERLLDELTLEGVARYMQSERCRRVICLVGAGISTSAGIPDFRSPSTGLYDNLEKYHLPYPEAIFEISYFKKHPEPFFALAKELYPGQFKPTICHYFMRLLKDKGLLLRCYTQNIDTLERIAGLEQEDLVEAHGTFYTSHCVSASCRHEYPLSWMKEKIFSEVTPKCEDCQSLVKPDIVFFGESLPARFFSCMQSDFLKVDLLLVMGTSLQVQPFASLISKAPLSTPRLLINKEKAGQSDPFLGMIMGLGGGMDFDSKKAYRDVAWLGECDQGCLALAELLGWKKELEDLVRREHASIDAQSGAGVPNPSTSASPKKSPPPAKDEARTTEREKPQ

The assay deals with T1, YTHDF1 (endogenous, HEK-293T cells) (human (endogenous in HEK-293T)). Briefly: co-IP.
Take “Myc-Sirt7 (from UniProt Q9NRC8 1-400) (enzyme)”: the binding result is “binds”.

Consider “Myc-ATAT1 (from UniProt Q5SQI0 1-421) (enzyme)”, for which the binding entry was “no binding”.

On to “Myc-Sirt6 (from UniProt Q8N6T7 1-355) (enzyme)”, for which the binding entry was “binds”.

In the case of “Myc-P300 (from UniProt Q09472 1-2414) (enzyme)”, the binding result is on record as “no binding”. The value for B1 was “binds”; that for B2 was “binds”.
